Source: US20220331267A1, “METHODS AND COMPOSITIONS FOR TREATMENT OF DEMYELINATING DISORDERS” (Rush University Medical Center, priority 2019, published 2022)

Molecular target: T1, PPARβ (Mus musculus, UniProt P35396)
T1 sequence (P35396 1-440): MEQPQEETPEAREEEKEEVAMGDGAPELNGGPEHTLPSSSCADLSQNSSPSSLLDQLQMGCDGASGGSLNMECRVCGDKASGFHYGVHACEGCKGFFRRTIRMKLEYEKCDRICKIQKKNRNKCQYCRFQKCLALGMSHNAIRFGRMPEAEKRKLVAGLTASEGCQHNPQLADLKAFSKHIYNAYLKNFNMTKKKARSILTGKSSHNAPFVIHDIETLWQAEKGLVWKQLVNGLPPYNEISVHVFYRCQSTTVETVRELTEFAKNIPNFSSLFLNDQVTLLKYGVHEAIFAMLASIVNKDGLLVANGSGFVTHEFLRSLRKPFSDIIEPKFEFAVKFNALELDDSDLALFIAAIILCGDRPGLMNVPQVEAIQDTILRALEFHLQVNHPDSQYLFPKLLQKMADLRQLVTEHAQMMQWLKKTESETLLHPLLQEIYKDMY
Details: melting temperature shift of PPARβ protein, Table 3 screen

SMILES | ΔTm [°C]
Cc1cc(O)ccc1C(C)C [4-I, 5-M Phenol] | 0.15
CC(C)(C)c1cc(C(C)(C)C)c(O)c(C(C)(C)C)c1 [2,4,6 TB Phenol, 2,4,6-Tri-ter-butyl Phenol] | 0.44
